In a collection of fitness landscapes (doi:10.1126/science.1257360):
The other results are listed elsewhere or left out.

B1: PhoQ; a variant is named by its letters at X, in order, P23837 (parent)
chain: MKKLLRLFFPLSLRVRFLLATAAVVLVLSLAYGMVALIGYSVSFDKTTFRLLRGESNLFYTLAKWENNKLHVELPENIDKQSPTMTLIYDENGQLLWAQRDVPWLMKMIQPDWLKSNGFHEIEADVNDTSLLLSGDHSIQQQLQEVREDDDDAEMTHSVAVNVYPATSRMPKLTIVVVDTIPVELKSSYMVWSWFIYVLSANLLLVIPLLWVAAWWSLRPIEALAKEVRELEEHNRELLNPATTRELTSLVRNLNRLLKSERERYDKYRTTLTDLTHSLKTPLXXLQXXLRSLRSEKMSVSDAEPVMLEQISRISQQIGYYLHRASMRGGTLLSRELHPVAPLLDNLTSALNKVYQRKGVNISLDISPEISFVGEQNDFVEVMGNVLDNACKYCLEFVEISARQTDEHLYIVVEDDGPGIPLSKREVIFDRGQRVDTLRPGQGVGLAVAREITEQYEGKIVAGESMLGGARMEVIFGRQHSAPKDE

Variants of: B1
Test: enrichment ratio after two sorts for PhoP signalling (ratio (wild type AVST 3.29)); higher = more functional
Settings: with PhoP (E. coli)

Variant	enrichment ratio
NYML	≤ 0.25
AWGS	≤ 0.25
TSIG	≤ 0.25
TDIF	≤ 0.25
AEDK	≤ 0.25
NQWN	≤ 0.25
DPWF	≤ 0.25
YLQQ	≤ 0.25
ANWV	0.326
PMDW	≤ 0.25
IHCM	≤ 0.25
RYKN	≤ 0.25
RDCM	≤ 0.25
MMYC	≤ 0.25
TPHI	≤ 0.25
GTTG	≤ 0.25
VWKS	≤ 0.25
LISQ	≤ 0.25
EFKA	≤ 0.25
PWIM	≤ 0.25
EHGP	≤ 0.25
PGDL	≤ 0.25
DFCY	≤ 0.25
FTTW	≤ 0.25
VTPA	≤ 0.25
NNLK	≤ 0.25

Variant	enrichment ratio
MDIN	≤ 0.25
WAPD	≤ 0.25
HYDH	≤ 0.25
QPIP	≤ 0.25
LTVW	≤ 0.25
WEHY	≤ 0.25
LLAP	≤ 0.25
TFWN	≤ 0.25
EIFQ	≤ 0.25
ALTN	7.81
QIFQ	≤ 0.25
THFK	≤ 0.25
WFLL	≤ 0.25
ICCS	≤ 0.25
QQYY	6.44
NFRE	≤ 0.25
TRAS	≤ 0.25
MLIL	≤ 0.25
MIWP	≤ 0.25
DIIR	≤ 0.25
QFSN	≤ 0.25
SSCN	16.9
SRLL	10.3
ERTF	≤ 0.25
SVVW	≤ 0.25
INCN	≤ 0.25

Variant	enrichment ratio
IWFV	≤ 0.25
ACYW	≤ 0.25
VLML	≤ 0.25
FMYR	≤ 0.25
DCWV	≤ 0.25
WAHK	≤ 0.25
NLDP	≤ 0.25
YLDS	≤ 0.25
LEYN	≤ 0.25
DFDE	≤ 0.25
TMFK	≤ 0.25
MITF	8.42
DCNK	≤ 0.25
EMIS	≤ 0.25
VPVI	≤ 0.25
EHPR	≤ 0.25
EPYG	≤ 0.25
IAAD	≤ 0.25
TGRY	≤ 0.25
AAVC	≤ 0.25
VKTV	≤ 0.25
YSSG	0.26
HLGH	≤ 0.25
EHNN	≤ 0.25
HEYM	≤ 0.25
KLSD	≤ 0.25

Variant	enrichment ratio
WLIR	≤ 0.25
HVVF	≤ 0.25
IHKK	≤ 0.25
FTDE	≤ 0.25
HQEW	≤ 0.25
MPDQ	≤ 0.25
MFKW	≤ 0.25
HCVF	≤ 0.25
YKLT	≤ 0.25
GPLQ	≤ 0.25
PKEF	≤ 0.25
EIDE	≤ 0.25
NIRN	≤ 0.25
FQAD	≤ 0.25
IRWW	≤ 0.25
MPLT	≤ 0.25
RAIR	≤ 0.25
TVGE	≤ 0.25
GNGD	≤ 0.25
AAAI	1.63
RQYD	≤ 0.25
MFGH	≤ 0.25
RLKR	≤ 0.25
TVIQ	≤ 0.25
KAIR	≤ 0.25
SYSQ	≤ 0.25

Variant	enrichment ratio
KFNY	≤ 0.25
FANW	≤ 0.25
CFPC	≤ 0.25
WKWK	≤ 0.25
FYTC	≤ 0.25
SILI	4.12
YNVS	0.288
VHCH	≤ 0.25
NPPL	≤ 0.25
KHCQ	≤ 0.25
AWCK	1.52
VCNL	≤ 0.25
VMPC	≤ 0.25
MAFK	≤ 0.25
PVNA	≤ 0.25
EQYM	≤ 0.25
LGPA	≤ 0.25
KQCF	≤ 0.25
TKFI	9.39
TDVG	4.14
RTFN	≤ 0.25
HTAN	≤ 0.25
VDYM	≤ 0.25
KIGG	≤ 0.25
LRIL	≤ 0.25
GCNW	≤ 0.25

Variant	enrichment ratio
TCRC	≤ 0.25
IWMQ	≤ 0.25
IHWQ	≤ 0.25
QERH	≤ 0.25
TSGP	≤ 0.25
YRQW	≤ 0.25
WDRC	≤ 0.25
WTAM	≤ 0.25
WFDD	≤ 0.25
LTFA	≤ 0.25
LMEW	≤ 0.25
LPVK	≤ 0.25
HYFV	≤ 0.25
LPVW	≤ 0.25
HGSL	≤ 0.25
KFQM	≤ 0.25
ATKM	≤ 0.25
NEID	≤ 0.25
LPCG	≤ 0.25
ITCP	≤ 0.25
EESF	≤ 0.25
HRYC	≤ 0.25
QVVF	≤ 0.25
